# About 200 (0.062%) of roughly 320,000 compounds were called active. The shares of active, inactive and inconclusive entries below differ from those in the screen. The call rests on the fitted dose curve; in most records, active means well fitted activation curve with a large enough effect; inconclusive means small, poorly fitted or top-dose-only effect; inactive means no such curve, though single readings can be large or run the other way. No potency is given beside an inconclusive call; the fits are too rough.
# Experiment: qHTS assay for re-activators of p53 using a Luc reporter; further: nearly all actives have a fitted effect of over 45% in size
# Settings: H1299 p53-A138V BP100-luciferase reporter, luminescence, 24 h; series mostly up to 92.2 µM
# Method in brief: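 H1299 (p53-null), stable ts p53-A138V + BP100-Luc; 1000 cells/well, Opti-MEM/10% FBS; cpd 4 pt, 1:5; 24 h, 37 deg C, 5% CO2; detection reagent 10 min RT; luminescence.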
# Potency means the concentration at half of the fitted maximal effect; tags describe the fitted curve by direction and shape.
row,Structure (SMILES),Potency
1,Cc1cccc(S(=O)(=O)Nc2nc3ccccc3nc2Nc2ccc3c(c2)OCO3)c1,"inconclusive [activator, single point]"
2,C#CCn1cc(/C=N/Nc2nc3ccccc3[nH]2)c2ccccc21,active: 14.1 µM
3,Cn1c(=O)c2c(nc(N/N=C/c3ccncc3)n2Cc2ccccc2)n(C)c1=O,inactive
4,COCCCNc1nnc(Cc2ccc(Cl)cc2)c(=O)[nH]1,inactive
5,CCN1CCN(c2ccc(NC(=O)c3ccc(F)cc3)cc2Cl)CC1,"inconclusive [activator, full curve, poor fit]"
6,CC(C)c1nnc(NC(=O)C2CCCO2)s1 (configuration not stated),inactive
7,COC(=O)C(NC(=O)COc1ccccc1)(Nc1nc2c(s1)CCCC2)C(F)(F)F (configuration not stated),"inconclusive [activator, single point]"
8,CCCCNC(=O)CSc1nc(N)c(C(=O)Nc2ccc(OC)cc2)s1,"inconclusive [activator, partial curve, poor fit]"
9,COc1cc2c(cc1OC)CN(C(=O)c1ccc([N+](=O)[O-])o1)CC2,"inconclusive [activator, single point]"
10,CCOc1ccc(OCCC(=O)OCC(=O)N2CCN(S(=O)(=O)c3ccc(C)cc3)CC2)cc1,inactive
11,Cc1nc(-c2ccc(NC(=O)c3ccccc3Br)cc2)cs1,"inconclusive [activator, full curve, poor fit]"
12,CCOc1ccc(N=Nc2c(N)[nH][nH]c2=O)cc1,"inconclusive [activator, partial curve, poor fit]"
13,COc1cccc(C=Nc2ccccc2C#N)c1O,inactive
14,Cc1cc(C(=O)CSc2nnc(-c3ccco3)o2)c(C)n1C,"inconclusive [activator, full curve, poor fit]"
15,O=C(CN1C(=O)c2ccccc2C1=O)NN1C(=O)c2ccccc2C1=O,"inconclusive [activator, full curve, poor fit]"
16,O=C(Nc1cccc(Cl)c1N1CCCC1)c1cc2ccccc2o1,"inconclusive [activator, partial curve, poor fit]"
17,Cc1nn(-c2ccc([N+](=O)[O-])cc2)c2c1C(c1cccc(Br)c1)N1C(=N2)C(=O)Nc2ccccc21 (configuration not stated),inactive
18,N/C(Cc1ccc(Cl)cc1Cl)=N\OC(=O)Cc1ccccc1,"inconclusive [activator, single point]"
19,COc1ccccc1N1CCN(C(=O)C2CCN(S(=O)(=O)c3ccccc3)CC2)CC1,inactive
20,Cc1c(-c2ccccc2)c(=O)oc2ccc(O)cc12,"inconclusive [activator, single point]"
21,Cc1ccc(C(=O)Nc2nc(-c3ccccn3)cs2)s1,"inconclusive [activator, partial curve, poor fit]"
22,CCCC(=O)N1CCN(c2nc3ccccc3s2)CC1,"inconclusive [activator, full curve, poor fit]"
23,Oc1c(C(Nc2cccc(C(F)(F)F)c2)c2cccnc2)ccc2cccnc12 (configuration not stated),"inconclusive [activator, full curve, poor fit]"
24,COC(=O)C(=O)C/C(=N/Nc1ncnc2ccccc12)c1ccc(Cl)cc1,"inconclusive [activator, partial curve, poor fit]"

row,Structure (SMILES),Potency
1,O=C1/C(=C/c2cccs2)Cc2ccccc21,active: 39.8 µM
2,c1ccc(CN=C2NN=C(c3ccccc3)CS2)cc1,"inconclusive [activator, full curve, poor fit]"
3,O=C(NNC(=O)c1ccc(S(=O)(=O)N2CCCCC2)cc1)c1ccc(F)cc1,inactive
4,CCCn1c(C)cc(C(=O)COC(=O)c2ccc(Cl)c(S(=O)(=O)N3CCCC3)c2)c1C,inactive
5,COc1ccc2c(c1)CCc1c(C(=O)N3CCCCCC3)noc1-2,"inconclusive [activator, full curve, poor fit]"
6,Cc1c(C(=O)OCC(=O)N2C(C)CCCC2C)oc2ccccc12 (configuration not stated),inactive
7,O=C(N/N=C/C=C\c1cccc([N+](=O)[O-])c1)c1ccccn1,"inconclusive [activator, single point]"
8,Cn1nc(C(F)(F)F)c(C#N)c1N1CCN(c2ccccn2)CC1,inactive
9,c1ccc(Cn2nnnc2C(c2ccncc2)N2CCOCC2)cc1 (configuration not stated),inactive
10,CN(C)CCNc1oc(/C=C/c2ccccc2)nc1C#N,"inconclusive [activator, full curve, poor fit]"
11,CC(C)COc1ccc(C(=O)NC(Cc2c[nH]c3ccccc23)C(=O)NN)cc1 (configuration not stated),"inconclusive [activator, single point]"
12,Cc1cccc(NC(=O)Nc2ccc(C)cc2Br)c1,"inconclusive [activator, full curve, poor fit]"
13,Fc1ccccc1CSc1nnc(-c2cccs2)o1,"inconclusive [activator, partial curve, poor fit]"
14,O=S1(=O)c2ccc(Br)cc2N2CCC[C@@H]2CN1Cc1ccccc1,inactive
15,O=C(COc1ccccc1)Nc1ccccc1F,inactive
16,CN1/C(=C/C(=O)c2cccs2)Sc2ccccc21,"inconclusive [activator, partial curve, poor fit]"
17,Cc1ccc(-c2cc(C(=O)NCC3CCCO3)no2)cc1 (configuration not stated),"inconclusive [activator, partial curve, poor fit]"
18,COc1ccc(NC(=O)C2C3CCC(O3)C2C(=O)O)cc1OC (configuration not stated),"inconclusive [activator, partial curve, poor fit]"
19,COc1ccc2nc(Nc3nc(C)c(C(C)=O)s3)sc2c1,"inconclusive [activator, partial curve, poor fit]"
20,CCCC(=O)N1CCN(c2ccc(NC(=O)c3ccc(OCC)c([N+](=O)[O-])c3)cc2)CC1,inactive
21,Cc1ccc(NC(=O)OCc2cc(-c3ccccc3)on2)cc1,inactive
22,CC(C)(C)NC(=S)N/N=C\c1ccc(-c2ccc([N+](=O)[O-])cc2)o1,"inconclusive [activator, partial curve, poor fit]"
23,CS(=O)(=O)c1cnc2c(-c3ccc(F)cc3)cnn2c1N,"inconclusive [activator, full curve, poor fit]"
24,Cc1nn(-c2nc3ccccc3[nH]2)c(N)c1-c1ccccc1,"inconclusive [activator, partial curve, poor fit]"

row,Structure (SMILES),Potency
1,Cc1ccc(N(C(=O)Nc2ccccc2)C2=NCCC2)cc1,"inconclusive [activator, single point]"
2,O=C(COc1cc(F)ccc1[N+](=O)[O-])NCCN1C(=O)CSC1=O,inactive
3,COc1ccc2nc(NC(=O)c3ccc(F)cc3)sc2c1,"inconclusive [activator, partial curve, poor fit]"
4,COc1ccc(NC(=O)c2cc3ccccc3cc2O)cc1,"inconclusive [activator, full curve, poor fit]"
5,O=C(/C=C/c1ccco1)Nc1cc(Cl)ccc1C(=O)O,inactive
6,CCc1cc(-c2nc(N)ncc2-c2ccc(Br)cc2)c(O)cc1OC,inactive
7,COc1ccccc1C1CC(c2ccc(C)cc2)Nc2ncnn21 (configuration not stated),"inconclusive [activator, partial curve, poor fit]"
8,CC1CN(C(=S)SCC(=O)c2ccccc2)CC(C)O1 (configuration not stated),"inconclusive [activator, partial curve, poor fit]"
9,COC(=O)C1=C(C)NC(=O)NC1c1ccc(-c2ccccc2Cl)o1 (configuration not stated),inactive
10,COc1ccccc1CNC(=O)c1ccc(-c2ccccc2C(F)(F)F)o1,inactive
11,Cc1cccc(CN2CCN(CCCc3ccccc3)CC2)c1,inactive
12,Cc1ccc2nc(NC(=O)c3cc(-c4ccco4)nc4ccccc34)sc2c1,"inconclusive [activator, single point]"
13,COc1ccc(S(=O)(=O)Nc2cc(C(C)C)c(O)cc2C)cc1,inactive
14,CCC1CCCCN1CCCNC(=O)CC1Oc2ccc(C)cc2NC1=O (configuration not stated),"inconclusive [activator, single point]"
15,CC1(C)CN=C(N(Cc2ccccc2)C(=O)Nc2ccccc2)S1,"inconclusive [activator, partial curve, poor fit]"
16,Nc1nnc(SCCCC(=O)c2ccccc2)s1,"inconclusive [activator, partial curve, poor fit]"
17,Clc1c(-c2ccccc2)nnn1-c1ccccc1,"inconclusive [activator, partial curve, poor fit]"
18,COc1cccc2cc(C(=O)N3CCCCC3C)c(=O)oc12 (configuration not stated),inactive
19,COc1cccc(NC(=S)NN2CCN(C)CC2)c1,inactive
20,O=C(CSc1ccccc1)Nc1ccc(N2CCOCC2)cc1,"inconclusive [activator, full curve, poor fit]"
21,COC(=O)N/N=C/c1cccc(OCCSc2ccc(Cl)cc2)c1,inactive
22,O=C(C1CCCN1S(=O)(=O)c1cccc2nsnc12)N1CCN(c2ccc(F)cc2)CC1 (configuration not stated),inactive
23,CCC(C)Sc1ccc([C@H]2N[C@@](Cc3ccccc3)(C(=O)OC)[C@H]3C(=O)N(CC)C(=O)[C@@H]23)cc1OC (some centres not stated),"inconclusive [activator, full curve, poor fit]"
24,Cc1ccnc(NC(=S)NC(=O)/C=C/c2ccco2)c1,"inconclusive [activator, partial curve, poor fit]"
